Reference: PubChem BioAssay AID485360 (National Center for Advancing Translational Sciences (NCATS), 2010)
The whole screen tested about 230,000 compounds, of which about 1,500 (0.65%) were called active. This list was built around the results that the source calls inconclusive (neither active nor inactive); the mix of calls is not that of the screen. Calls follow the shape of the dose curve; as a rule, active = well fitted inhibition curve with a large enough effect; inconclusive = small, poorly fitted or top-dose-only effect; inactive = no such curve, though single readings can be large or run the other way. Where the call is inconclusive, the potency comes from a doubtful curve fit.

Biological target: Lethal(3)malignant brain tumor-like protein 1 (Homo sapiens) (UniProt Q9Y468)
Experiment: qHTS Assay for the Inhibitors of L3MBTL1; also: nearly all actives have a fitted effect of over 60% in size
Settings: AlphaScreen L3MBTL1–H3K9me1 peptide binding; activity, negative = inhibition: at 57.1 µM (top of the series)
How it was run: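 AlphaScreen proximity signal between nickel-chelate acceptor and streptavidin donor beads (final 10 ug/mL) reports binding of 50 nM L3MBTL1 to 75 nM biotin-H3 K9me1 peptide; complex incubated with compounds 30 min at room temperature; cefsulodin titration as control.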
% is scaled to controls: 0 for no effect and ±100 for the full control effect; potency is read from the fitted curve at half-maximal effect; tags tell the direction and shape of the fitted curve.

Question: For `O=c1c2[nH]c3ccccc3c2ncn1Cc1cccnc1`, which Potency is on record?
Answer: Its Potency is inconclusive: 39.8 µM [inhibitor, single point].

Question: How did the “activity, negative = inhibition” value turn out when `Cc1cc(C(c2nnnn2Cc2ccccc2)N2CCOCC2)c(C)n1-c1ccc2c(c1)OCO2` (configuration not stated) was run?
Answer: Its value is inactive: -17%.

Question: Which Potency does the source give for `COc1ccc(C(=O)N2CCC(C(=O)Nc3ccc4c(c3)OCO4)CC2)cc1` here?
Answer: The Potency was inconclusive: 39.8 µM [inhibitor, single point].

Question: Which Potency does the source give for `Cn1cnnc1SCC(=O)Nc1ccc(N2CCCCC2)cc1` here?
Answer: Its Potency is inconclusive: 25.1 µM [inhibitor, single point].

Question: How did the Potency turn out when `O=[N+]([O-])c1cccc(-c2ccc(/C=N/Nc3nc(N4CCCCC4)nc(N4CCCCC4)n3)o2)c1` was run?
Answer: Its Potency is inconclusive: 0.562 µM [inhibitor, full curve].

Question: How did the “activity, negative = inhibition” value turn out when `O=C(O)c1c2c(nc3ccc(S(=O)(=O)N4CCC(C(=O)NC5CCCC5)CC4)cc13)CCCCC2` was run?
Answer: The value was inactive: -13.8%.

Question: How did the “activity, negative = inhibition” value turn out when `COc1ccc(OC)c(C(=O)NC(CC(N)=O)c2ccc(NCCOc3ccccc3)c([N+](=O)[O-])c2)c1` (configuration not stated) was run?
Answer: The value was inactive: -14.4%.

Question: How did the “activity, negative = inhibition” value turn out when `CN(C(=O)CSc1nc(C2CC2)n(-c2ccccc2)n1)C1CCS(=O)(=O)C1` (configuration not stated) was run?
Answer: Its value is inactive: 4.69%.

Question: `COc1cccc(/C=N/NC(=O)c2cc3cc([N+](=O)[O-])ccc3s2)c1O` was tested. Which Potency did it give?
Answer: The Potency was inconclusive: 35.5 µM [inhibitor, single point].

Question: How did the “activity, negative = inhibition” value turn out when `CCC(NS(=O)(=O)c1ccc2c(c1)Cc1cc(S(=O)(=O)NC(CC)C(=O)O)ccc1-2)C(=O)O` (configuration not stated) was run?
Answer: Its value is inactive: 11.8%.

Question: Which “activity, negative = inhibition” value does the source give for `O=C(COC(=O)Cc1ccc(S(=O)(=O)N2CCOCC2)s1)Nc1ccc(OC(F)F)cc1` here?
Answer: Its value is inactive: -5.52%.

Question: With `CC1(C)OC(=O)C(=NNc2ccc(Br)cc2)C(=O)O1` as the compound, how does the Potency read?
Answer: Its Potency is inconclusive: 31.6 µM [inhibitor, single point].

Question: With `CCCCn1c(N)c(N(CC(C)C)C(=O)c2ccco2)c(=O)[nH]c1=O` as the compound, how does the Potency read?
Answer: The Potency was inconclusive: 8.91 µM [inhibitor, partial curve].

Question: `O=C1c2cccc3cccc(c23)C(=O)N1/N=C/c1ccc(O)cc1O` was tested. Which “activity, negative = inhibition” value did it give?
Answer: Its value is inactive: -8.53%.

Question: Which Potency does the source give for `O=C(CC(c1ccccc1)c1ccccc1)Nc1nn[nH]n1` here?
Answer: The Potency was inconclusive: 3.55 µM [inhibitor, partial curve].

Question: With `Cc1ccc(OCCC(=O)O)cc1` as the compound, how does the Potency read?
Answer: The Potency was inconclusive: 28.2 µM [inhibitor, single point].

Question: For `CCn1c(C)cc(/C=C2/NC(=O)N(Cc3ccccc3F)C2=O)c1C`, which Potency is on record?
Answer: The Potency was inconclusive: 25.1 µM [inhibitor, single point].

Question: `NC(=O)C1CCN(C(c2ccccc2Cl)c2nnnn2Cc2ccc3c(c2)OCO3)CC1` (configuration not stated) was tested. Which “activity, negative = inhibition” value did it give?
Answer: The value was inactive: 1.08%.

Question: Which “activity, negative = inhibition” value does the source give for `CCc1cc(-c2n[nH]c(C)c2-c2nc3ccccc3n2C)c(O)c(CN2CCN(C)CC2)c1O` here?
Answer: Its value is inactive: -9.21%.

Question: How did the Potency turn out when `CCN(c1ccc(NC(=O)COC(=O)c2cc3ccccc3oc2=O)cc1)C(C)C` was run?
Answer: The Potency was inconclusive: 3.55 µM [inhibitor, partial curve].

Question: For `CCOc1cccc(-c2nn(-c3ccccc3)cc2/C=C(/C#N)C(=O)NCCCn2ccnc2)c1`, which Potency is on record?
Answer: The Potency was inconclusive: 15.8 µM [inhibitor, single point].

Question: With `COC(=O)c1ccc(C(=O)OCCCc2nc3ccc(N)cc3[nH]2)cc1` as the compound, how does the “activity, negative = inhibition” value read?
Answer: The value was inactive: -2.02%.

Question: `CCCOc1ccc(Cc2nn3c(=O)/c(=C/c4ccco4)sc3nc2=O)cc1` was tested. Which Potency did it give?
Answer: Its Potency is inconclusive: 28.2 µM [inhibitor, single point].

Question: How did the “activity, negative = inhibition” value turn out when `COC(=O)[C@H](Cc1ccccc1)N(Cc1ccccc1)S(=O)(=O)N(Cc1ccccc1)[C@@H](Cc1ccccc1)C(=O)OC` was run?
Answer: Its value is inactive: -2.37%.

Question: How did the Potency turn out when `CC[n+]1c(/C=C/c2c[nH]c3ccccc23)ccc2cc(C)ccc21` was run?
Answer: The Potency was inconclusive: 25.1 µM [inhibitor, single point].

Question: Which Potency does the source give for `CCOC(=O)N=Nc1c2ccccc2c2nc3no[nH]c3nc12` here?
Answer: Its Potency is inconclusive: 10 µM [inhibitor, partial curve].

Question: For `CCN(CC)c1ccc(/C=C(/C#N)c2nc3ccccc3[nH]2)c(OC(C)C)c1`, which Potency is on record?
Answer: The Potency was inconclusive: 15.8 µM [inhibitor, partial curve].

Question: How did the Potency turn out when `Cc1ccc(-n2c(C)nc3oc4ccccc4c(=O)c3c2=O)cc1` was run?
Answer: Its Potency is active: 39.8 µM.

Question: How did the “activity, negative = inhibition” value turn out when `CCOP(=O)(OCC)/C(=N/OC(=O)c1ccc(OC)cc1)C(N)=O` was run?
Answer: The value was inactive: -0.0748%.

Question: How did the “activity, negative = inhibition” value turn out when `CCSc1nc2sc3c(c2c(=O)n1-c1ccccc1)CCN(C)C3` was run?
Answer: Its value is inactive: -6.51%.

Question: Which “activity, negative = inhibition” value does the source give for `O=C(O)c1ccc(S(=O)(=O)N[C@H](Cc2ccc([N+](=O)[O-])cc2)C(=O)O)cc1` here?
Answer: Its value is inactive: 6.93%.

Question: `CCc1ccc(-n2c(Cn3nc(C(F)(F)F)cc3C)n[nH]c2=S)cc1` was tested. Which “activity, negative = inhibition” value did it give?
Answer: Its value is inactive: 1.59%.

Question: For `Cc1n[nH]c(=S)n(NC(=O)/C=C/C(=O)Nn2c(=S)[nH]nc(C)c2=O)c1=O`, which Potency is on record?
Answer: The Potency was inconclusive: 39.8 µM [inhibitor, single point].

Question: Which Potency does the source give for `CC(C)(C)c1nc2scc(-c3ccc(Br)cc3)c2c(=O)o1` here?
Answer: Its Potency is inconclusive: 6.31 µM [inhibitor, single point].

Question: Which “activity, negative = inhibition” value does the source give for `N#Cc1cc2c(nc1SCC(=O)O)CCCCC2` here?
Answer: The value was inactive: -10.4%.

Question: `CCOc1ccc(/C=N/Nc2ccccn2)cc1OC` was tested. Which “activity, negative = inhibition” value did it give?
Answer: The value was inactive: -13.7%.

Question: With `CCOc1ccc(Oc2ccccc2NC(=O)CN2C(=O)NC3(CCCC3)C2=O)cc1` as the compound, how does the Potency read?
Answer: The Potency was inconclusive: 6.31 µM [inhibitor, single point].

Question: With `Cc1ccc(C)c(NC(=S)N(C)CCc2ccccn2)c1` as the compound, how does the “activity, negative = inhibition” value read?
Answer: The value was inactive: -7.23%.

Question: Which activity, negative = inhibition does the source give for `CCCCC1C(=O)N(c2ccccc2)N(c2ccccc2)C1=O` here?
Answer: Its activity, negative = inhibition is inconclusive: -36.1% [inhibitor].

Question: How did the “activity, negative = inhibition” value turn out when `O=C(Nc1ccccc1C(=O)Nc1nnc(C(F)(F)F)s1)c1ccccc1Cl` was run?
Answer: Its value is inactive: 1.75%.

Question: Which “activity, negative = inhibition” value does the source give for `COc1ccc(OCc2nc3ccc(S(=O)(=O)Nc4ccccc4Cl)cc3[nH]2)cc1` here?
Answer: Its value is inactive: -6.82%.

Question: Which Potency does the source give for `O=C1ON=C(c2ccccc2)/C1=C/c1ccc(-c2ccccc2[N+](=O)[O-])o1` here?
Answer: Its Potency is inconclusive: 25.1 µM [inhibitor, single point].

Question: How did the Potency turn out when `c1ccc(CN2CCC3(CC2)Nc2ccccc2S3)cc1` was run?
Answer: The Potency was inconclusive: 22.4 µM [inhibitor, single point].

Question: For `Cc1c(C(=O)OCC2CCCO2)[nH]c2c1C(=O)CC(c1ccco1)C2` (configuration not stated), which Potency is on record?
Answer: The Potency was active: 14.1 µM.

Question: For `CC(/C=C/c1ccccc1)=N/NC(=O)c1nc2nc(C)cc(C)n2n1`, which Potency is on record?
Answer: The Potency was inconclusive: 0.224 µM [inhibitor, full curve, poor fit].

Question: How did the Potency turn out when `CCNC(=O)CCSc1nc(C)cc(C)n1` was run?
Answer: The Potency was inconclusive: 0.1 µM [inhibitor, full curve, poor fit].

Question: For `CCN(CC)S(=O)(=O)c1ccc2c(c1)c(=O)c(C(=O)N1CCc3ccccc3C1)cn2C`, which Potency is on record?
Answer: The Potency was inconclusive: 2.51 µM [inhibitor, single point].
